# Experimental data reported in PubChem BioAssay AID2675 (National Center for Advancing Translational Sciences (NCATS), 2010).
# The campaign covered roughly 280,000 compounds. About 100 (0.036%) were called active. This list was built around the results that the source calls inconclusive (neither active nor inactive); the mix of calls is not that of the screen. Calls come from the whole dose curve; as a rule, active = well fitted inhibition curve with a large enough effect in the signal ratio, with a control signal flat (not every such curve was filed as active); inconclusive = small, poorly fitted or top-dose-only effect, or effect the other way, or a change in a side signal; inactive = no such curve, though single readings can be large or run the other way; the % refers to the signal ratio. Potencies beside an inconclusive call are fits to weak or partial responses and may not hold up. “Side channel” marks fits to a control or component signal instead of the main read-out.
# Molecular target: Muscleblind-like protein 1 (Homo sapiens) (UniProt Q9NR56)
# Experiment: qHTS Assay for Inhibitors of MBNL1-poly(CUG) RNA binding
# Details: TR-FRET MBNL1-His/biotin-(CUG)12 binding, 665/545 ratio; activity change, negative = inhibition: at 57.5 µM (top of the series)
# Method in brief: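 Inhibition of protein-RNA binding appears as loss of TR-FRET between terbium anti-His antibody on MBNL1-His and streptavidin-XL665 on biotin-(CUG)12. Activity is normalized to buffer-only and uninhibited-complex controls.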
# % is set by controls: 0 for no effect and ±100 for the full control effect; potency is the fitted concentration of half-maximal effect; tags give direction and shape of the fitted curve or compound fluorescence and quenching.
# Sequence of UniProt Q9NR56 (Q9NR56 whole entry, looked up): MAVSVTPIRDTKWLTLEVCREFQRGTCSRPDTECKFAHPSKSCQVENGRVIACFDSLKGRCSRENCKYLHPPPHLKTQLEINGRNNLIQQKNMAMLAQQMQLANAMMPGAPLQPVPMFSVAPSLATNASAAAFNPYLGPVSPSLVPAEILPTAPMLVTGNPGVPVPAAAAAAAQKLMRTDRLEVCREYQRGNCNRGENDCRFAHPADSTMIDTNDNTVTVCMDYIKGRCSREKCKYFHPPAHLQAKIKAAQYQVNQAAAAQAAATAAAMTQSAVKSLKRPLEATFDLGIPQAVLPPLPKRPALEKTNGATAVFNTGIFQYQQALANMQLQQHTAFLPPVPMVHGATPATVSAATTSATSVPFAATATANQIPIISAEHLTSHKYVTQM
SMILES,Potency,"activity change, negative = inhibition"
CCN1C(=O)/C(=C2/C=CC=CN2C)SC1=S,"inconclusive: 17.8 µM [quencher, side channel, partial curve]",
CSc1c(CC(=O)Nc2ccc(F)cc2)n(Cc2ccccc2)c2ccccc12,"inconclusive: 100 µM [fluorescent, side channel, partial curve, poor fit]",
Cc1cc(C)cc(NC(=O)CS(=O)(=O)c2cccc3nsnc23)c1,"inconclusive: 15.8 µM [quencher, side channel, partial curve]",
CCOc1ccc(N2C(=O)C3Sc4[nH]c(=O)sc4C(/C=C/c4ccccc4)C3C2=O)cc1 (stereo not drawn),"inconclusive: 5.62 µM [quencher, side channel, single point]",
O=C(c1ccc(Cn2cc(Br)cn2)cc1)N1CCN(c2ccccc2)CC1,,inactive: -6.79%
Cc1[nH]n(-c2ccccc2)c(=O)c1C(c1ccc(C(=O)O)cc1)c1c(C)[nH]n(-c2ccccc2)c1=O,"inconclusive: 100 µM [inhibitor, single point]",
COC(=O)Cn1c(=NC(=O)c2ccc(OC)cc2)sc2cc(OC)ccc21,,inactive: -2.9%
CN(C)/C=N/c1sc2c(c1C#N)CCCC2,"inconclusive: 17.8 µM [quencher, side channel, partial curve]",
COc1cccc(Oc2ccc(S(=O)(=O)N3CCCC3)cc2[N+](=O)[O-])c1,"inconclusive: 7.08 µM [quencher, side channel, partial curve]",
CCc1c(C)sc2nc3c(C(=O)N4CCOCC4)cc(C(=O)c4ccccc4O)cn3c(=O)c12,"inconclusive: 22.4 µM [quencher, side channel, partial curve]",
Cc1ccc2[nH]c(O)c(N=Nc3ccccc3C)c2c1,"inconclusive: 31.6 µM [quencher, single point]",
COc1ccc(/C=N/Nc2cc(C)nc3ccccc23)cc1,"inconclusive: 17.8 µM [quencher, side channel, partial curve]",
CC(=O)C1C(=O)c2c(cccc2[N+](=O)[O-])C1=Nc1ccc(S(N)(=O)=O)cc1 (stereo not drawn),"inconclusive: 31.6 µM [quencher, side channel, partial curve]",
COc1ccc([N+](=O)[O-])cc1NCc1cccc([N+](=O)[O-])c1,"inconclusive: 25.1 µM [quencher, single point]",
O=S(=O)(Nc1ccccc1F)c1ccc2nsnc2c1,"inconclusive: 15.8 µM [quencher, side channel, partial curve]",
COc1cc([N+](=O)[O-])ccc1NC(=O)CN1CCN(C(=O)c2ccco2)CC1,"inconclusive: 28.2 µM [quencher, side channel, partial curve]",
O=C(Nc1nnc(C2CC2)s1)c1cc([N+](=O)[O-])ccc1N1CCCCC1,"inconclusive: 8.91 µM [quencher, side channel, partial curve]",
COc1ccc(CNC(=O)C(C)OC(=O)C23CC4CC(CC(O)(C4)C2)C3)cc1 (stereo not drawn),"inconclusive: 3.55 µM [fluorescent, side channel, single point]",
NC(=O)CSc1nc2ccc([N+](=O)[O-])cc2[nH]1,"inconclusive: 7.94 µM [quencher, side channel, partial curve]",
Cc1ccc(N2C(=O)C(Cl)=C(N3CCN(C)CC3)C2=O)c(C)c1,,inactive: 60.1%

SMILES,Potency,"activity change, negative = inhibition"
O=C(O)c1ccc(N/N=C/C=C/c2ccc([N+](=O)[O-])o2)cc1,"inconclusive: 12.6 µM [quencher, side channel, partial curve]",
CN(C)c1ccc(C(=O)/C=C/c2cccnc2)cc1,"inconclusive: 7.94 µM [quencher, side channel, partial curve]",
CC(C)(C)c1ccccc1NC(=O)Cn1c(=O)cnc2ccccc21,"inconclusive: 39.8 µM [quencher, side channel, single point]",
O=C(c1ccco1)N1CCN(c2nc3ccsc3c(=O)s2)CC1,"inconclusive: 10 µM [quencher, side channel, partial curve]",
CCNc1nc2nc3ccc(C)cn3c(=O)c2cc1C(=O)NCC1CCCO1 (stereo not drawn),"inconclusive: 3.16 µM [quencher, full curve]",
O=C(O)Cc1ccc(-c2ccccc2)cc1,"inconclusive: 100 µM [inhibitor, single point]",
Cc1ccc(S(=O)(=O)N2CCCOC2CNC(=O)C(=O)NCCCn2ccnc2)cc1 (stereo not drawn),"inconclusive: 398 µM [inhibitor, partial curve, poor fit]",
C=C1CCN([C@@H](C)C(=O)NCc2ccc(Cl)cc2)S(=O)(=O)c2ccccc21,,inactive: -1.81%
c1ccc(CCCNc2ncccn2)cc1,,inactive: -17.6%
CCOC(=O)c1cc([N+](=O)[O-])sc1NC(=O)CC,"inconclusive: 7.94 µM [quencher, side channel, partial curve]",
COc1ccc(NC(=O)/C=C/C(=O)O)cc1Cl,"inconclusive: 25.1 µM [quencher, side channel, single point]",
S=C(c1ccc(-c2ccc(Br)cc2)o1)N1CCCCC1,,inactive: 20.5%
Cn1c2c(c(=O)n(C)c1=O)C(c1cccc([N+](=O)[O-])c1)Nc1ccccc1O2 (stereo not drawn),"inconclusive: 39.8 µM [quencher, side channel, single point]",
COc1ccc(NC(=O)c2ccc(NC(=O)C(C)C)cc2)c([N+](=O)[O-])c1,"inconclusive: 7.94 µM [quencher, side channel, full curve]",
Cc1c(Cl)cccc1NC(=S)N1CCOCC1,"inconclusive: 2.51 µM [fluorescent, side channel, full curve]",
CC(=O)c1ccc(OCC(O)COc2ccc(C(C)=O)cc2)cc1,"inconclusive: 39.8 µM [fluorescent, side channel, single point]",
COc1cc(NC(=O)CN2C(=O)CN(C)C2=O)c(C)cc1[N+](=O)[O-],"inconclusive: 44.7 µM [quencher, side channel, partial curve, poor fit]",
O=C(COc1ccccc1F)NNC(=O)c1ccc(N2CCCCC2)c([N+](=O)[O-])c1,"inconclusive: 10 µM [quencher, side channel, partial curve]",
O=C(COc1ccc(/C=C2/NC(=O)NC2=O)cc1)Nc1ccc(F)cc1,"inconclusive: 1.26 µM [quencher, side channel, full curve, poor fit]",
CC(C)CNC(=O)c1ccc2c(c1)C(=O)N(Cc1ccco1)C2=O,"inconclusive: 17.8 µM [quencher, side channel, partial curve]",

SMILES,Potency,"activity change, negative = inhibition"
O=C(NCCNS(=O)(=O)c1ccccc1)c1ccc([N+](=O)[O-])cc1,"inconclusive: 12.6 µM [quencher, side channel, partial curve]",
O=[N+]([O-])c1cccc(-c2noc(COc3ccccc3)n2)c1,"inconclusive: 28.2 µM [quencher, side channel, single point]",
CC(=O)NCCn1c(SCC(=O)NCC2CCCO2)nc2ccccc2c1=O (stereo not drawn),"inconclusive: 79.4 µM [inhibitor, single point]",
COc1cc(/C=C2\SC(=S)N(CC(=O)O)C2=O)ccc1OC(=O)c1ccco1,"inconclusive: 25.1 µM [quencher, side channel, partial curve]",
Cc1cccc(OC(C)C(=O)Nc2ccc(S(=O)(=O)N3CCCC3)cc2)c1 (stereo not drawn),,inactive: -2.47%
CCCCCC(=O)NNC(=O)c1c(O)c2ccccc2n(CC)c1=O,,inactive: 9.22%
O=C(O)CCSc1ccc([N+](=O)[O-])cc1[N+](=O)[O-],"inconclusive: 12.6 µM [quencher, partial curve]",
O=C(N/C(=C/c1cn(-c2ccccc2)nc1-c1ccccc1)C(=O)N1CCOCC1)c1ccccc1,"inconclusive: 0.0891 µM [fluorescent, side channel, full curve, poor fit]",
O=C1c2ccccc2C(=O)c2c1cccc2N1CCOCC1,"inconclusive: 8.91 µM [quencher, side channel, partial curve]",
O=C(COc1ccccc1)Nc1nnc(-c2ccc3c(c2)CCCC3)o1,"inconclusive: 0.126 µM [quencher, side channel, full curve, poor fit]",
O=C(O)CCC(=O)Nc1nnc(C(F)(F)F)s1,,inactive: -10.7%
Cc1cc2[nH]cnc2c([N+](=O)[O-])c1C,"inconclusive: 28.2 µM [quencher, side channel, partial curve]",
CSc1ccc(C2NC(=O)c3c(sc4c3CCN(C)C4)N2)cc1 (stereo not drawn),"inconclusive: 15.8 µM [quencher, side channel, partial curve]",
Cc1c(-c2cccc(Cl)c2)nc2ccccc2c1C(=O)OCC(=O)Nc1ccc2c(c1)OCO2,"inconclusive: 6.31 µM [quencher, side channel, single point]",
NC(=O)c1ccc(N2CCN(c3ccc(O)cc3)CC2)c([N+](=O)[O-])c1,"inconclusive: 17.8 µM [quencher, side channel, partial curve]",
O=[N+]([O-])c1cccc(P(=O)(O)c2cccc([N+](=O)[O-])c2)c1,"inconclusive: 25.1 µM [quencher, side channel, partial curve]",
O=[N+]([O-])c1cc(Cl)ccc1N1CCOCC1,"inconclusive: 22.4 µM [quencher, side channel, single point]",
CC(C)CN1C(=O)c2ccc(C(=O)NCc3ccccn3)cc2C1=O,"inconclusive: 15.8 µM [quencher, side channel, partial curve]",
